By IC50 is meant the dose at which the fit gives 50% viability; a limit (>, <) means that the fit lies beyond the doses tested. The AUC spans the tested range (256-fold, ending at the top dose) of the same fit; it is 1 without any effect and falls as sensitivity rises. For some assays here: Any top dose called inferred is not printed in the source and was worked back from the curve model.
How the values were obtained:
Experiment in all cases: Viability of human cancer cell lines after 72 h of drug (GDSC screen)
[1] = compound: COC1=CC(c2cc3ccccc3[nH]2)=N/C1=C\c1[nH]c(C)cc1C [Obatoclax mesylate]; settings: top dose 16 µM
Protocol: (§1)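 Human cancer cell lines in 384-well plates, medium with 10% serum, drug for 72 h over a 256-fold dose range (nine 2-fold or five 4-fold steps up to the top dose). Adherent lines were fixed and stained with the nucleic acid dye Syto60, suspension lines read with resazurin; signal relative to control wells, capped at 0 and 100%. One two-parameter sigmoid per drug and line, fitted in a mixed model over all curves with the slope shared within a line.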

[2] = compound: COCC(=O)NC/C=C/c1ccc2ncnc(Nc3ccc(Oc4ccc(C)nc4)c(C)c3)c2c1 [CP724714]; settings: top dose 10.24 µM; top dose inferred
Protocol: as §1

[3] = compound: Cc1cccc(Nc2nc(-c3ccncc3)cs2)c1 [STF-62247]; settings: top dose 10.24 µM; top dose inferred
Protocol: as §1

[4] = compound: Cc1cnc(CNC(=O)c2c(=O)c3ccc(N4CCCN(C)CC4)nc3n3c2sc2ccccc23)cn1 [CX-5461]; settings: top dose 10.24 µM; top dose inferred
Protocol: as §1

In the case of “HARA (lung squamous cell carcinoma, adherent)”, the AUC [1] is reported as 0.413, the IC50 [1] is reported as 0.553 µM and the AUC [2] is reported as 0.926. The IC50 [2] was > 10.2 µM, the AUC [3] was 0.956 and the IC50 [3] was > 10.2 µM. The AUC [4] was 0.794 and the IC50 [4] was 5.6 µM.
For HCC38 (breast, adherent), the AUC [1] was 0.623, the IC50 [1] was 2.25 µM and the AUC [2] was 0.977. The IC50 [2] was > 10.2 µM, the AUC [3] was 0.986 and the IC50 [3] was > 10.2 µM. It also gave an AUC [4] of 0.853 and an IC50 [4] of 9.04 µM.
HCC70 (breast, adherent) gave an AUC [1] of 0.511, an IC50 [1] of 1.07 µM and an AUC [2] of 0.987. The IC50 [2] was > 10.2 µM, the AUC [3] was 0.967 and the IC50 [3] was > 10.2 µM. For the same cell line, the AUC [4] was 0.95 and the IC50 [4] was > 10.2 µM.
Cell Line HCC1143 (breast, adherent) has an AUC [1] of 0.303, an IC50 [1] of 0.221 µM and an AUC [2] of 0.944. The IC50 [2] was > 10.2 µM, the AUC [3] was 0.971 and the IC50 [3] was > 10.2 µM. The AUC [4] was 0.979 and the IC50 [4] was > 10.2 µM.
HCC1187 (breast, suspension) gave an AUC [1] of 0.623, an IC50 [1] of 2.14 µM and an AUC [2] of 0.968. The IC50 [2] was > 10.2 µM, the AUC [3] was 0.932 and the IC50 [3] was > 10.2 µM. The AUC [4] was 0.981 and the IC50 [4] was > 10.2 µM.
Work on HCC1395 (breast, adherent) yielded an AUC [1] of 0.621, an IC50 [1] of 2.31 µM and an AUC [2] of 0.981. The IC50 [2] was > 10.2 µM, the AUC [3] was 0.981 and the IC50 [3] was > 10.2 µM. The AUC [4] was 0.977 and the IC50 [4] was > 10.2 µM.
HCC1419 (breast, adherent) gave an AUC [1] of 0.665, an IC50 [1] of 3.5 µM and an AUC [2] of 0.73. For the same cell line, the IC50 [2] was 3.89 µM, the AUC [3] was 0.949 and the IC50 [3] was > 10.2 µM. For the same cell line, the AUC [4] was 0.981 and the IC50 [4] was > 10.2 µM.
HCC1428 (breast, adherent) showed an AUC [1] of 0.343, an IC50 [1] of 0.35 µM and an AUC [2] of 0.979. For the same cell line, the IC50 [2] was > 10.2 µM, the AUC [3] was 0.987 and the IC50 [3] was > 10.2 µM. The AUC [4] was 0.987 and the IC50 [4] was > 10.2 µM.
With HCC1500 (breast, adherent) the AUC [1] was 0.406, the IC50 [1] was 0.546 µM and the AUC [2] was 0.972. The IC50 [2] was > 10.2 µM, the AUC [3] was 0.988 and the IC50 [3] was > 10.2 µM. The AUC [4] was 0.981 and the IC50 [4] was > 10.2 µM.
For HCC1569 (breast, adherent), the AUC [1] was 0.163, the IC50 [1] was < 0.0625 µM and the AUC [2] was 0.945. The IC50 [2] was > 10.2 µM, the AUC [3] was 0.959 and the IC50 [3] was > 10.2 µM. The AUC [4] was 0.968 and the IC50 [4] was > 10.2 µM.
HCC1806 (breast, adherent) gave an AUC [1] of 0.176, an IC50 [1] of 0.117 µM and an AUC [2] of 0.986. For the same cell line, the IC50 [2] was > 10.2 µM, the AUC [3] was 0.923 and the IC50 [3] was > 10.2 µM. It also gave an AUC [4] of 0.864 and an IC50 [4] of 7.76 µM.
HCC1937 (breast, adherent) gave an AUC [1] of 0.431, an IC50 [1] of 0.627 µM and an AUC [2] of 0.978. The IC50 [2] was > 10.2 µM, the AUC [3] was 0.982 and the IC50 [3] was > 10.2 µM. The AUC [4] was 0.956 and the IC50 [4] was > 10.2 µM.
With HCC1954 (breast, adherent) the AUC [1] was 0.619, the IC50 [1] was 2.25 µM and the AUC [2] was 0.853. The IC50 [2] was 10.2 µM, the AUC [3] was 0.984 and the IC50 [3] was > 10.2 µM. For the same cell line, the AUC [4] was 0.981 and the IC50 [4] was > 10.2 µM.
Cell Line “HCC-15 (lung squamous cell carcinoma, adherent)” has an AUC [1] of 0.447, an IC50 [1] of 0.688 µM and an AUC [2] of 0.975. The IC50 [2] was > 10.2 µM, the AUC [3] was 0.979 and the IC50 [3] was > 10.2 µM. The AUC [4] was 0.978 and the IC50 [4] was > 10.2 µM.
In the case of HCC-44 (lung adenocarcinoma, adherent), the AUC [1] is reported as 0.125, the IC50 [1] is reported as 0.0658 µM and the AUC [2] is reported as 0.981. For the same cell line, the IC50 [2] was > 10.2 µM, the AUC [3] was 0.938 and the IC50 [3] was > 10.2 µM. The AUC [4] was 0.496 and the IC50 [4] was 0.623 µM.
HCC-56 (large intestine, adherent) was tested, and the AUC [1] was 0.427, the IC50 [1] was 0.628 µM and the AUC [2] was 0.878. The IC50 [2] was > 10.2 µM, the AUC [3] was 0.987 and the IC50 [3] was > 10.2 µM. For the same cell line, the AUC [4] was 0.962 and the IC50 [4] was > 10.2 µM.
HCC-78 (lung adenocarcinoma, adherent) gave an AUC [1] of 0.533, an IC50 [1] of 1.25 µM and an AUC [2] of 0.968. The IC50 [2] was > 10.2 µM, the AUC [3] was 0.983 and the IC50 [3] was > 10.2 µM. For the same cell line, the AUC [4] was 0.962 and the IC50 [4] was > 10.2 µM.
For HCC-827 (lung adenocarcinoma, adherent), the AUC [1] was 0.24, the IC50 [1] was 0.155 µM and the AUC [2] was 0.916. The IC50 [2] was > 10.2 µM, the AUC [3] was 0.984 and the IC50 [3] was > 10.2 µM. For the same cell line, the AUC [4] was 0.985 and the IC50 [4] was > 10.2 µM.
Cell Line HCT-15 (large intestine, adherent) has an AUC [1] of 0.214, an IC50 [1] of 0.136 µM and an AUC [2] of 0.972. The IC50 [2] was > 10.2 µM, the AUC [3] was 0.984 and the IC50 [3] was > 10.2 µM. For the same cell line, the AUC [4] was 0.71 and the IC50 [4] was 2.62 µM.
With HCT-116 (large intestine, adherent) the AUC [1] was 0.174, the IC50 [1] was 0.11 µM and the AUC [2] was 0.977. The IC50 [2] was > 10.2 µM, the AUC [3] was 0.967 and the IC50 [3] was > 10.2 µM. For the same cell line, the AUC [4] was 0.774 and the IC50 [4] was 3.82 µM.
In the case of HDQ-P1 (breast, adherent), the AUC [1] is reported as 0.554, the IC50 [1] is reported as 1.44 µM and the AUC [2] is reported as 0.981. For the same cell line, the IC50 [2] was > 10.2 µM, the AUC [3] was 0.964 and the IC50 [3] was > 10.2 µM. The AUC [4] was 0.61 and the IC50 [4] was 1.36 µM.
For HEC-1 (endometrium, adherent), the AUC [1] was 0.223, the IC50 [1] was 0.161 µM and the AUC [2] was 0.987. The IC50 [2] was > 10.2 µM, the AUC [3] was 0.986 and the IC50 [3] was > 10.2 µM. The AUC [4] was 0.989 and the IC50 [4] was > 10.2 µM.
For HGC-27 (stomach, adherent), the AUC [1] was 0.041, the IC50 [1] was < 0.0625 µM and the AUC [2] was 0.974. For the same cell line, the IC50 [2] was > 10.2 µM, the AUC [3] was 0.98 and the IC50 [3] was > 10.2 µM. The AUC [4] was 0.948 and the IC50 [4] was > 10.2 µM.
With “HL-60 (acute myeloid leukaemia, suspension)” the AUC [1] was 0.544, the IC50 [1] was 1.3 µM and the AUC [2] was 0.989. For the same cell line, the IC50 [2] was > 10.2 µM, the AUC [3] was 0.99 and the IC50 [3] was > 10.2 µM. For the same cell line, the AUC [4] was 0.9 and the IC50 [4] was > 10.2 µM.
HLE (liver, adherent) gave an AUC [1] of 0.223, an IC50 [1] of 0.165 µM and an AUC [2] of 0.944. For the same cell line, the IC50 [2] was > 10.2 µM, the AUC [3] was 0.955 and the IC50 [3] was > 10.2 µM. For the same cell line, the AUC [4] was 0.958 and the IC50 [4] was > 10.2 µM.
With HMV-II (melanoma, adherent) the AUC [1] was 0.132, the IC50 [1] was < 0.0625 µM and the AUC [2] was 0.941. The IC50 [2] was > 10.2 µM, the AUC [3] was 0.98 and the IC50 [3] was > 10.2 µM. For the same cell line, the AUC [4] was 0.963 and the IC50 [4] was > 10.2 µM.
HN (head and neck, adherent) was tested, and the AUC [1] was 0.097, the IC50 [1] was < 0.0625 µM and the AUC [2] was 0.988. For the same cell line, the IC50 [2] was > 10.2 µM, the AUC [3] was 0.989 and the IC50 [3] was > 10.2 µM. The AUC [4] was 0.989 and the IC50 [4] was > 10.2 µM.
Cell Line HO-1-N-1 (head and neck, adherent) has an AUC [1] of 0.127, an IC50 [1] of 0.0755 µM and an AUC [2] of 0.987. The IC50 [2] was > 10.2 µM, the AUC [3] was 0.984 and the IC50 [3] was > 10.2 µM. For the same cell line, the AUC [4] was 0.933 and the IC50 [4] was > 10.2 µM.
HO-1-u-1 (head and neck, adherent) showed an AUC [1] of 0.139, an IC50 [1] of 0.079 µM and an AUC [2] of 0.981. The IC50 [2] was > 10.2 µM, the AUC [3] was 0.976 and the IC50 [3] was > 10.2 µM. The AUC [4] was 0.802 and the IC50 [4] was 4.79 µM.
In the case of “HOP-92 (large cell lung carcinoma, adherent)”, the AUC [1] is reported as 0.3, the IC50 [1] is reported as 0.249 µM and the AUC [2] is reported as 0.973. The IC50 [2] was > 10.2 µM, the AUC [3] was 0.98 and the IC50 [3] was > 10.2 µM. For the same cell line, the AUC [4] was 0.985 and the IC50 [4] was > 10.2 µM.
Cell Line HOS (osteosarcoma, adherent) has an AUC [1] of 0.124, an IC50 [1] of 0.0865 µM and an AUC [2] of 0.992. For the same cell line, the IC50 [2] was > 10.2 µM, the AUC [3] was 0.991 and the IC50 [3] was > 10.2 µM. For the same cell line, the AUC [4] was 0.964 and the IC50 [4] was > 10.2 µM.
